Screen size: about 50,000 compounds; about 800 (1.6%) showed an effect of 50% or more. The list shows a part of the results.
biological target: Bcl-2-like protein 10 (Homo sapiens) (UniProt Q9HD36); assay: TR3 peptide-Bcl-B binding displacers, biochemical primary FP assay, phenotype converters (AID 1240); settings: GST-Bcl-B / FITC-TR3 peptide fluorescence polarization; stronger effect = higher value; compound at 3.75 mg/L;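 also: 0% = Bcl-B with tracer peptide and DMSO and 100% = tracer peptide lacking Bcl-B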
UniProt Q9HD36, sequence (Q9HD36 whole entry, looked up): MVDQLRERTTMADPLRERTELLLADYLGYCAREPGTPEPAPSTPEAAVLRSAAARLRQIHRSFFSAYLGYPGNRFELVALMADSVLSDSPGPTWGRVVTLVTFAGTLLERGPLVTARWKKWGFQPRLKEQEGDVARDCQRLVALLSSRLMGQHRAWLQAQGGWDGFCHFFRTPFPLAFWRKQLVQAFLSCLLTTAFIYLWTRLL

Structure (SMILES) | displacement [%]
CCc1cc(C)cc(OCCOc2ccccc2/C=N/n2cnnc2)c1 | 0
COC(=O)c1ccc(N2C(=O)CC(Sc3n[nH]c(C)n3)C2=O)cc1 (configuration not stated) | -6
COC(=O)c1c(NC(=O)COc2ccc(C)cc2C)sc2c1C(C(=O)OC)CC2 (configuration not stated) | 15.4
CN(C)c1cccc2c(C(NS(=O)(=O)c3ccccc3)C(Cl)(Cl)Cl)ccc(N(C)C)c12 (configuration not stated) | 144
O=C(Nc1ccc(OC(F)(F)C(F)F)cc1)C(c1ccccc1)c1ccccc1 | -15.8
CCOC(=O)c1ccc(NC(=O)/C(C#N)=C2\NC(C)(C)Cc3ccccc32)cc1 | -2.1
CC1(C)C(c2ccccc2)=NC(c2ccccc2O)N1O (configuration not stated) | -3.2
Cc1ccccc1N1OC2C(=O)N(c3ccccc3)C(=O)C2C1c1cccs1 (configuration not stated) | 5.7
O=C(Nc1ccc(Cl)cc1)c1cc2n(n1)C(C(F)(F)F)CC(c1ccco1)N2 (configuration not stated) | 6.7
CCc1nnc(NC(=O)C2CCCO2)s1 (configuration not stated) | -0.3
O=C(C[n+]1ccccc1)OCC12CC3CC(CC(C3)C1)C2 | 14.4
O=C(O)CN1C(=O)/C(=C\c2cccc(OC(=O)c3ccco3)c2)SC1=S | 8.8
Cc1no[n+]([O-])c1COc1ccc(/C=C(\C#N)C(N)=O)cc1 | -1.7
CC1(C)CC(=O)c2cc(C(=O)NCCO)c(=O)n(-c3ccccc3)c2C1 | 12
CCOC(=O)c1cnc2cc(-c3ccc(Cl)cc3)nn2c1C | -9
O=C(COc1ccccc1[N+](=O)[O-])Nc1ccc(N2CCOCC2)cc1 | 9.6
CCCCOC(=O)c1ccc(NC(=O)CSc2nnc(-c3ccco3)n2-c2ccccc2)cc1 | -12.3
COc1ccc(OC)c(NC(=O)C2C3C=CC(C3)C2C(=O)O)c1 (configuration not stated) | 7.5
CN1C(=O)/C(=C/c2ccc(-c3ccc(C(=O)O)cc3)o2)SC1=S | 1.6
CCNC(=O)c1ccc(CN2CCN(c3ccccc3)CC2)cc1 | 8.2
O=C(N/C(=C/c1ccc(Br)cc1)c1nc2ccccc2[nH]1)c1ccccc1 | 3.2
Cc1cc(/C=C2/SC(=O)NC2=O)c(C)n1-c1ccc(F)cc1 | 14.1
CCC(C)c1ccc(OCc2nnc(NC(=O)Nc3ccccc3)s2)cc1 (configuration not stated) | 2.3

Structure (SMILES) | displacement [%]
CCOC(=O)c1c(NC(=O)/C=C/c2ccccc2)sc(C(C)=O)c1C | 0
O=C(NCCOc1ccccc1F)c1ccc(Cl)cc1Cl | -7.2
O=C(NCCN1CCOCC1)/C(=C/c1ccccc1)NC(=O)c1ccccc1 | 5.2
Cc1cccc(CN2CCN(C3CCCC3)CC2)c1 | -2.2
COc1ccc(/C(N)=N/OC(=O)Cc2ccc(OC)c(OC)c2)cc1 | 9.9
O=C(COc1ccc2cc(-c3nc4ccccc4s3)c(=O)oc2c1)OCc1ccccc1 | 53.3
O=[N+]([O-])c1ccc(O)c(-c2cc(C(F)(F)F)nc(-c3ccccc3)n2)c1 | 8.4
CN1CCN(Cn2c(O)c(N=NC(=O)c3ccccc3Cl)c3ccccc32)CC1 | -6.5
Oc1ccc(Br)cc1C=NCc1ccco1 | 3.3
CCOc1ccc(NC(=O)/C(=C\c2ccco2)NC(=O)c2ccc(C)cc2)cc1 | 16.9
N#CCCn1c(=S)oc2ccccc21 | -9.3
O=c1[nH]c2ccc(Cl)cc2c(-c2ccccc2)c1C1=NOC(c2ccccc2)C1 (configuration not stated) | 12.6
Cc1[nH]n(-c2ccccc2)c(=O)c1C(c1ccccc1C(F)(F)F)c1c(C)[nH]n(-c2ccccc2)c1=O | -4.5
COc1ccc(CN(C)C(=O)c2cccc(C(=O)N(C)Cc3ccc(OC)cc3)c2)cc1 | 10.7
Cc1ccc(C(=O)N/C(=C/c2ccc(-c3ccc(Cl)cc3)o2)C(=O)NC(C)C)cc1 | 14.2
CC(=O)C(C(C)=O)C1=CC(=O)C(=O)c2ccccc21 | 14.3
CCOC(=O)C1=C(N)Oc2cc(O)ccc2C1c1cccc([N+](=O)[O-])c1 (configuration not stated) | -8.6
COc1ccc(Br)cc1C(=O)Nc1ccc2nn(-c3ccccc3)nc2c1 | 48.4
CN1CCN(Cc2c(O)ccc3c(=O)c(-c4ccc(Cl)cc4Cl)coc23)CC1 | -8.4
COc1cc(/C=C2\SC(=S)N(C)C2=O)ccc1OC(=O)c1ccc(Cl)cc1 | 25.4
C/C(=N\NC(=O)c1cccc([N+](=O)[O-])c1)c1ccccn1 | 5.7
COc1ccc(-n2c(SCC(=O)N3CCOCC3)nc(O)c(Cc3ccccc3)c2=O)cc1 | 1.2
O=C(CCCSc1nc2sc3c(c2c(=O)[nH]1)CCCC3)NCCO | -7.2

Structure (SMILES) | displacement [%]
O=C(CN1C(=O)c2ccccc2C1=O)Nc1cccc(-c2nc3ccccc3c(=O)o2)c1 | -11.6
COc1ccc(/C=C/C(=O)NC(=S)Nc2ccc(I)cc2)cc1 | 14.3
CC(C)c1nnc(NC(=O)Nc2ccc(Cl)c(Cl)c2)s1 | 98.2
C=CCOc1ccc(/C=C2\C(=O)NC(=O)N(c3ccc(C)cc3)C2=O)cc1 | -10.4
CCOc1cc(OCC)cc(C(=O)Nc2cc(C(=O)OC)cc(C(=O)OC)c2)c1 | 6.7
COc1ccc(C2=NN(C(=O)CCC(=O)O)C(c3ccc(OC)c(OC)c3)C2)cc1 (configuration not stated) | 16.9
CC(C)COc1cccc(-c2cc(C(=O)O)c3ccccc3n2)c1 | -0.4
CCOC(=O)c1c(NC(=O)c2ccc([N+](=O)[O-])cc2)sc2c1CCC(C)C2 (configuration not stated) | -4.3
O=C(NCc1ccc2c(c1)OCO2)c1ccco1 | 13
O=C(N/N=C/c1nc2ccccc2n1Cc1ccccc1)c1ccccc1 | -2.6
COc1cccc(N(CC(=O)Nc2cc(C)ccc2C)S(=O)(=O)c2ccccc2)c1 | -5.8
O=c1cc(NC2CCCCC2)c2ccccc2n1-c1ccccc1 | -2.4
CCCC(=O)NS(=O)(=O)c1ccc(NC(=O)c2cccc(Br)c2)cc1 | 5.9
O=C1Nc2ccccc2C1=Cc1nc2ccccc2c(=O)n1-c1ccccc1[N+](=O)[O-] | -5.1
S=c1nc2c(n[nH]1)c1ccccc1n2Cc1ccccc1 | -6
CC1=C(C(=O)Nc2ccccc2)C(c2ccc(Cl)cc2)N2C(=O)CSC2=N1 (configuration not stated) | -14.3
COC(=O)C1=C(C)N(c2ccc(C)c(C)c2)/C(=C/c2ccc(OC)cc2)C1=O | 14.1
NC(=O)c1ccc(NC(=O)C2CCCC2)cc1 | -4
Cc1ccc(/C=C/C(=O)Nc2ncc(Cc3ccc(F)cc3)s2)o1 | 7
CCC(=O)Nc1ccc(NC(=O)/C=C/c2ccccc2)cc1 | -3.3
CN(C)c1ccc(/C=C2\SC(=S)N(NC(=O)c3ccccc3Cl)C2=O)cc1 | -1.7
